This is one part of the list. Further columns of the screen follow, without active or inactive calls. Most of these compounds were active or inconclusive in the main read-out, so they are no random draw. The note in brackets gives the kind of curve behind each potency; many fits are weak.
Assay: Cell-based coincidence reporter assay to measure PMP22 gene transcription in S16 Pmp22-F2sN cells - Confirmatory screen (AID 1508646)
Conditions: S16 Schwann cells Pmp22-F2sN, dual luciferase, 24 h; measured here: FLuc reporter channel
Summary of the method: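 Coincidence reporter read as sequential FLuc then NLuc luminescence (Nano-Glo Dual-Luciferase, 10 min each). Engineered S16 Pmp22-F2sN Schwann cells, 500-1,000 per well in DMEM/10% FBS, were exposed to compounds for 24 h, 37C.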
Tags describe the fitted curve by direction and shape.

SMILES | AC50
Cc1cccc(-c2nnn3c2nc(NCc2ccc4c(c2)OCO4)c2ccccc23)c1 | 15.3 µM [falling, partial curve]
O=C(NCCCN1CCN(c2ccc(F)cc2)CC1)c1cc2c(Cl)nc3ccccc3c2s1 | 17.2 µM [falling, partial curve]
O=C(Cn1c(-c2cccs2)cc2ccccc21)NCCCN1CCN(c2ccc(F)cc2)CC1 | 19.3 µM [falling, partial curve, poor fit]

Same assay, conditions: S16 Schwann cells Pmp22-F2sN, dual luciferase, 24 h; measured here: NLuc reporter channel

SMILES | AC50
O=S(=O)(NCC(c1ccco1)S(=O)(=O)c1cccs1)c1ccc(Cl)cc1 (stereo not drawn) | 5.44 µM [falling, full curve]
O=C(Nc1cccc(-c2nc3ccccc3o2)c1)C(F)(F)F | 38.5 µM [rising, single point]
COc1ccccc1NC(=O)Cn1nnc(C(=O)NCc2cccs2)c1N | 3.06 µM [falling, partial curve]
CCCn1c2ccccc2c2cnn(CC(=O)NCC3CCN(Cc4ccc(C)cc4)CC3)c(=O)c21 | 24.3 µM [falling, partial curve]
CC(C)OCCCNC(=O)c1ccc(-n2c(-c3ccccc3)cc3c2CCCC3)cc1 | 24.3 µM [falling, partial curve, poor fit]
CCCOc1ccc(CN2C(=O)C(=O)c3cccc(C)c32)cc1 | 24.3 µM [falling, partial curve]
CCCN1CCN(CCCNC(=O)Cn2c(-c3cccs3)cc3cc(Cl)ccc32)CC1 | 24.3 µM [falling, partial curve]
Cc1ccc2nc3c(c(Nc4ccc(C)c(C)c4)c2c1)CCC3 | 17.2 µM [falling, partial curve, poor fit]
Fc1ccc(Nc2c3c(nc4ccccc24)CCC3)cc1 | 17.2 µM [falling, partial curve]
COc1cccc(NC(=O)N(Cc2cn(C)c3ccccc23)C2CCCCC2)c1 | 21.7 µM [falling, partial curve]
CCOc1ccc(NC(=O)CSc2oc(-c3ccccc3)nc2S(=O)(=O)c2ccc(Cl)cc2)cc1 | 19.3 µM [falling, partial curve]
O=C(Nc1nc2ccc(F)cc2s1)c1nc(S(=O)(=O)Cc2ccccc2F)ncc1Cl | 12.2 µM [falling, partial curve]
Cc1ccc(CNC(=O)c2ccc(Nc3nc4ccccc4n4nnnc34)cc2)cc1 | 12.2 µM [falling, partial curve]
Cn1nnnc1SCCCNCc1ccccc1OCc1ccccc1Cl | 24.3 µM [falling, partial curve]
Cc1ccc(-n2c(=O)c3ccc(C(=O)NCc4ccccc4Cl)cc3n(CC(=O)Nc3ccc(C)cc3C)c2=O)cc1 | 10.9 µM [falling, partial curve]
CCOC(=O)c1cc2c(=O)n3ccccc3nc2n(C(C)C)c1=NC(=O)c1c(-c2c(F)cccc2Cl)noc1C | 19.3 µM [falling, partial curve]
Cc1cc(Nc2sc(C(=O)c3ccc(F)cc3)c(N)c2C(=O)Nc2ccc(F)cc2)ccc1Cl | 6.11 µM [falling, full curve]
CCS(=O)(=O)c1ncc(Cl)c(C(=O)Nc2c(C(=O)c3ccc(C)cc3)oc3ccccc23)n1 | 10.9 µM [falling, full curve]
CCc1nnc(NC(=O)c2nc(S(C)(=O)=O)ncc2Cl)s1 | 12.2 µM [falling, full curve]
COc1ccccc1CNC(=O)CCCCn1c(=O)c2ccccc2n(Cc2ccccc2C)c1=O | 24.3 µM [falling, partial curve]

SMILES | AC50
Cc1cccc(-n2c(=O)c3c(c4cc(C)ccc4n3C)n(CC(=O)NCCC3=CCCCC3)c2=O)c1 | 17.2 µM [falling, partial curve]
Cc1oc(-c2cccc(Cl)c2)nc1CN1CCC(C(=O)NCCCN2CCN(c3cccc(Cl)c3)CC2)CC1 | 24.3 µM [falling, partial curve]
Cc1ccc(CN2C(=O)C(O)(c3c(C)[nH]c4ccccc34)c3ccccc32)cc1 (stereo not drawn) | 17.2 µM [falling, partial curve]
Cc1ccc(Cl)cc1Nc1nn2c(=O)c3ccc(C(=O)NCc4cccs4)cc3nc2s1 | 21.7 µM [falling, partial curve]
CCOC(=O)c1cc2c(=O)n3ccccc3nc2n(CC(C)C)c1=NC(=O)COc1ccc(Cl)cc1 | 24.3 µM [falling, partial curve]
CCCn1c(=N)c(C(=O)NCc2ccccc2)cc2c(=O)n3cccc(C)c3nc21 | 27.3 µM [falling, partial curve, poor fit]
COc1cccc(-n2c(SCC(=O)c3ccc(Cl)cc3)nc3c([nH]c4ccccc43)c2=O)c1 | 10.9 µM [falling, partial curve]
Cc1c(C(=O)Nc2ccccc2Cl)oc2ccc(S(=O)(=O)N3CCCCC3)cc12 | 24.3 µM [falling, partial curve]
COc1ccc(C2Sc3ccccc3NC3=C2C(=O)c2ccccc23)c(OC)c1OC (stereo not drawn) | 4.85 µM [falling, full curve]
COc1ccc(NC(=O)CCS(=O)(=O)c2nc(-c3cccs3)cc(C(F)(F)F)n2)cc1 | 12.2 µM [falling, partial curve]
CCC(C)NC(=O)C1CCN(C(=O)c2cc3sccc3n2Cc2ccc(Cl)cc2)CC1 (stereo not drawn) | 12.2 µM [falling, partial curve]
Cc1cccc(Nc2c3c(nc4nncn24)CCC3)c1C | 0.243 µM [falling, full curve]
CCCCCOc1ccccc1CN1C(=O)C(=O)c2cc(C)ccc21 | 24.3 µM [falling, partial curve]
Cc1cccc(CS(=O)(=O)c2ncc(Cl)c(C(=O)Nc3nc4ccc(F)cc4s3)n2)c1 | 10.9 µM [falling, partial curve]
Cc1ccc(CNC(=O)Cn2c(=O)n(-c3cccc(Cl)c3)c(=O)c3sc4ccccc4c32)cc1 | 24.3 µM [falling, partial curve, poor fit]
O=C(CCS(=O)(=O)c1ccccc1)N(Cc1cccnc1)c1nc2c(F)cccc2s1 | 13.7 µM [falling, partial curve]
CCc1ccc(CNC(=O)CSc2c3c(nc4ccc(Cl)cc24)CCCC3)cc1 | 15.3 µM [falling, single point]
Cc1cccc(-c2nnn3c2nc(NCc2ccc4c(c2)OCO4)c2ccccc23)c1 | 15.3 µM [falling, partial curve]
O=C(NCCCN1CCN(c2ccc(F)cc2)CC1)c1cc2c(Cl)nc3ccccc3c2s1 | 19.3 µM [falling, partial curve, poor fit]
O=C(Cn1c(-c2cccs2)cc2ccccc21)NCCCN1CCN(c2ccc(F)cc2)CC1 | 21.7 µM [falling, partial curve]
